Test results: patent publication US20210134388A1, “Hyperstable Constrained Peptides and Their Design” (University of Washington, priority 2016, published 2021)
Entries after “also recorded” stand apart in the source; their conditions may differ. Not every entry of the source has a single result; some have several. This list holds those alone. The source may hold further records. The records of an entry seem to repeat one measurement on other runs, samples or individuals. A tag in brackets gives the origin of a value. Letters hold for one entry only. Positions of bridges follow the written chain, without caps; N, C: chain ends. Non-standard residues stand in square brackets, D forms with d.

Experiment: NMR secondary 1Hα chemical shifts at a range of temperatures
Assay type: physicochemical
Conditions: NMR spectra at 25° C., 55° C., 75° C.; listed as NC_HLHR_D1
Protocol: FIG. 19: Secondary ^1Hα chemical shifts at a range of temperatures for peptide NC_cHLHR_D1 (SEQ ID NO:09). NMR spectra were collected at 25° C. (black bars), 55° C. (blue bars), 75° C. (red bars), and again after cooling to 25° C. (green bars).
Each non-canonical peptide (1 mg) was dissolved in […] of 10% D20/90% H2O or 100% D2O (˜pH 4). NMR spectra were recorded at 298K on a Bruker Avance-600 spectrometer. Two-dimensional NMR experiments included TOCSY with an […] MLEV-17 spin lock, NOESY (200 ms mixing time), ECOSY, as well as natural-abundance ^13C and ^15N HSQC. Solvent suppression was achieved using excitation sculpting. Spectra were processed using Topspin 2.1 then analyzed using CcpNmr Analysis. Chemical shifts were referenced to internal 2,2-dimethyl-2-silapentane-5-sulfonate (DSS).

Substance: NPELQRKCKELdTRpeaerkcreeSD (cyclo(NPELQRKCKEL[dD]TR[dP][dE][dA][dE][dR][dK][dC][dR][dE][dE]SD); disulfide 8-21 (inferred)) [NC_cHLHR_D1]
- change of secondary 1Hα chemical shifts (secondary structure) on heating: no change from 25 °C (black) to 75 °C [passage A]; also recorded: no significant change on heating to 75 °C [passage B]
